Article PMC9554868
These are yes or no findings as the source states them, for the method shown. In cells and extracts the contact can be indirect. Some binding calls cover weakened binding; strength is not graded here.

Legend:
Test in all cases: co-IP
[1] = biological target: RING finger protein 26 (RNF26), wild type, Myc-FLAG-tagged (UniProt Q9BY78)
[2] = biological target: Zaire ebolavirus (EBOV) glycoprotein GP1,2 (Zaire ebolavirus (EBOV)) (UniProt Q05320)
[3] = biological target: EBOV nonstructural soluble GP (sGP) (Zaire ebolavirus (EBOV)) (UniProt P60170)

Substance	binding [1]	binding [2]	binding [3]
calreticulin (CALR), Myc-tagged (from UniProt P27797 18-417)	binds	binds	binds
protein disulfide isomerase family A member 3 (PDIA3/ERp57), Myc-tagged (from UniProt P30101 25-505)	no binding	–	–
